# Test results taken from the supplement of paper PMC10126150.
# Values marked as one replicate rest on one cluster of the flow cell; about a third of the high ones do not repeat.
# Test system: ATP
# Test: switch fluorescence ratio, 500 uM ATP over buffer (Cy3 cluster intensity, sum of 5 cycles each) (fold (ratio)); higher = stronger signal-on switching upon ATP binding; sequences stand for … in TCGTCGGCAGCGTCAGATGTGTATAAGAGACAGTTTTTTTTTTTTTTTTTTTTTTTTT…TC
# Settings: aptamer strand: ATP DNA aptamer (quencher-CACCTGGGGGAGTATTGCGGAGGAAGG + anchor), 100 nM annealed; ATP concentration: 500 uM; one replicate
# In short: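 Cy3-labelled switching-strand clusters on a modified Illumina MiSeq flow-cell were annealed to 100 nM quencher-labelled ATP aptamer and imaged first in selection buffer, then after 15 min with 500 uM ATP at 22 °C. NaOH stripping and re-annealing separated each of five buffer/ATP cycles, and clusters outside 100-1000 RFU were excluded. The fluorescence ratio sums target-cycle Cy3 intensity over buffer-cycle Cy3 intensity per cluster and averages it per switch-domain sequence.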
# 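Note: ATP exposure 15 min at 22 °C before imaging.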
row,Sequence,switch fluorescence ratio
1,TTGAACGGTT,1.04
2,ATGCAGCCC,1.04
3,GATCGATGGC,1.01
4,GTTCTCAGGC,0.97
5,TGCAGAAATC,1.18
6,TTACGCGTG,0.998
7,TCCTGATTAG,0.965
8,CGATTTGATT,1.01
9,GTGCCAAGAC,2.26
10,GAATGTCTCT,1.01
11,CAAGTAAATT,1.03
12,AGAATTGGAA,0.999
13,GCGTACTTTT,1
14,CCTGAGTT,0.999
15,GGACTCGCAG,1
16,TTACCTAGTG,1.05
17,GTTGGAGCGT,1.02
18,GCTTAGTCTT,0.96
19,AGCCTAAATT,0.986
20,TGCGTCCCAC,1.03
21,GTGCAGGTTC,0.985
22,TCCGTGCGAG,1.33
23,TGTTGTGGCC,0.967
24,ATTCCGTGCG,1.19
25,TCCACGCCGT,1.06
26,GGGCTAGTGC,1.05

row,Sequence,switch fluorescence ratio
1,CGTACACCT,1.16
2,TCCCCCGTTT,1.14
3,AATCGTAGGT,0.985
4,ATGCGTAAT,1.06
5,GATTCTACCT,1.24
6,AATATTGGG,0.946
7,ATAACACCAA,1.03
8,CTTCCCATAA,1.59
9,TCCAGTCAGT,0.994
10,GTCATACATA,1.03
11,CCATATTTGC,1.09
12,TCATATGCTC,0.991
13,ACGGGTACA,1.19
14,TGTTGTACAT,0.941
15,CCAGATTAAC,1.07
16,CAGACTTGTA,0.967
17,TTTTCTAAA,1.03
18,TGCTCTTTCT,0.962
19,ACGGCCAGTG,1.09
20,TTTAAAAAG,1
21,TCTCAGGCTC,1.04
22,CATGGACCAC,1.01
23,CACAGAGACT,1.01
24,GCACGGAGCT,1.27
25,TCGCCGGTGT,1.01
26,TCTGTGGTTT,0.975

row,Sequence,switch fluorescence ratio
1,CCCTTACCTC,1.13
2,AGCCCTTTGG,0.999
3,GGTAAACCAG,0.993
4,GAAATGCTCA,1.13
5,GAACGGATTA,1.06
6,CGCATCGCGA,1.08
7,CCGGTAGGAT,1.01
8,CGCGAAGAGT,0.987
9,CTATTTAGGT,0.98
10,TTGGTTGCCT,1.01
11,ACCTAACGGC,1.34
12,ACGGGATCCA,1.05
13,ATTAGTCGGC,0.999
14,GTTCCCCC,1.13
15,TGTCAGAGAC,1.04
16,CCTATATGTT,1.02
17,ACATCGTCGT,0.939
18,CGTATCTAGT,0.962
19,ACTCTTTTAG,1.06
20,AAGTATCACC,1.01
21,TACTTAACAG,1.13
22,AAATATCAGT,1
23,GGTTACCCAG,0.973
24,CCGGTTGCGC,1.37
25,CATTGCTCGC,1.07
26,TCATGAATTG,1.03

row,Sequence,switch fluorescence ratio
1,TGTGGACATG,1.07
2,GTTTCGAGAC,1.03
3,CTCACATCTA,1.02
4,ATGTGAGGT,1.06
5,TTTGGCATAG,1.05
6,TATAAAATGG,1
7,TCAATTCGCG,1.02
8,TGGACACCAG,0.986
9,CTCGGAGGGT,1.01
10,GATGGGTAGG,0.986
11,GCTTACGCCG,0.999
12,GCGGCGGAAT,1.1
13,TTGGAGAATA,0.987
14,TACTACTGCA,1.19
15,GTTCACTGGA,0.989
16,AAACTGAAGC,1.08
17,GATCATGGTA,0.977
18,AAATGTTAGG,0.99
19,TCCGGCTAAT,1.21
20,AAGCACGGGC,0.985
21,CGGGTCGGTC,0.947
22,GGGCGGGGT,1.03
23,ATCGAAACAG,0.994
24,GTGGATGCTC,0.991
25,GGACGGAGTA,0.986
26,ATGGTGT,1.06

row,Sequence,switch fluorescence ratio
1,TATGGTCATC,1.03
2,ACGTGTAGTG,1.03
3,GCCCGATGGA,1.06
4,GGTCGTCACT,1.03
5,TCGGCGCCGG,1.03
6,TGCCACTTCC,1.85
7,GTAGTTTAGG,0.971
8,CTGGTATTGC,1.09
9,CTTAGCTCGT,0.994
10,CACTCACTGC,1.08
11,TCAGACGGTG,1.04
12,CAAAGCCATG,1.03
13,AAACCAGCTA,0.977
14,CGATTGCTAT,1.23
15,GGCACTTCCC,1.21
16,CTGGATGATA,1.01
17,ATGAGCTACT,1.06
18,ACGCTAAGTA,1.03
19,GGAGCACCA,1.07
20,TGGTGTCATC,0.987
21,CAGATTAGGT,0.995
22,GGGCTAAGTA,0.972
23,GCAAGATGCA,1.02
24,GATCCACAGA,1.08
25,CTATTAGTGG,0.999
26,CGTTATTAAG,0.952

row,Sequence,switch fluorescence ratio
1,AAGTTGTTCC,1.02
2,AATCAGGAAA,1
3,TCGGATTTAT,1
4,ACTTTTCATC,1
5,GTAATCGCCT,1.28
6,AGAATGGCGT,1.08
7,ATAGTGCCTT,1.02
8,GAATTACAAG,0.989
9,TGATGCCGGG,0.931
10,ACTGAATAGT,1.02
11,GCCTCCAGTG,3.39
12,GCAGTTTCCA,0.991
13,GCAACTGGAC,1.2
14,ACAATACACC,1.65
15,TCAGGTTTGA,1.04
16,TCTATGTGCC,0.948
17,ACTACTCATC,1.1
18,CGGGCAAGAA,1.75
19,TGCCGGGGCA,0.997
20,GACACAGTAC,4.79
21,GTAGAATGTA,1.03
22,AGGTACACCG,1.02
23,GTGTGTGCGA,1
24,TATCTTTAGC,1
25,CTTTACCGAC,1.54
26,CTACAGCATC,2.51

row,Sequence,switch fluorescence ratio
1,TTCGGTAGGT,0.987
2,GAAAGTTCCT,1.06
3,TAGCCTACGA,1.1
4,GCACGGTTAT,0.993
5,CCGGCGACTC,1.59
6,GGCTCGTGCG,1
7,CTCTTAGAGT,0.937
8,ATGACATACT,1.32
9,GCAGGGGACC,1.46
10,GGCTAGGGTG,1.12
11,AGCGCGACA,1.01
12,GGTCATTTCC,1.09
13,TGATTTCGTC,0.991
14,CTTAAAATTC,1.03
15,TTTCCGTATT,2.31
16,TGGGTGGGT,1.04
17,AGGGATAGGA,0.996
18,TGCGTCTGAA,1.05
19,CCTAGCCACG,1.07
20,ACACCTTTGG,0.999
21,CTGCATCGTC,1.08
22,CCCACATGGA,1.05
23,TATTATATGT,1.03
24,GGCTTAGTAT,0.957
25,TTGGACTTTG,0.996
26,GATTATGAAG,0.969

row,Sequence,switch fluorescence ratio
1,TTCTAAAATA,1.03
2,CTCAACAATA,3.55
3,GTGGCGTATC,0.992
4,AGTTTTCAAA,1
5,CTAAGAGAAT,0.969
6,CAAATCTAA,0.973
7,ATAAGTGTCC,1.02
8,GTGCGGAAGA,1.05
9,TTGGAGTTCT,1.07
10,CGAGATTATT,1.06
11,AATATCGGGC,1.06
12,TTGAAACGCA,1.07
13,TTATAAATA,1.03
14,CCATTCAATC,1.28
15,CTTTAAGTAT,1.02
16,ATACTGTAGC,1.16
17,ACCTATGTTT,0.999
18,ATTTATAGGC,0.98
19,GAACTGTAAT,1.02
